The values below come from the supplement of paper PMC10126150.

Sequences with one replicate were seen in a single cluster, so their values are uncertain.

The subject of this data set is ATP. The data set can be described thus: switch fluorescence ratio, 500 uM ATP over buffer (Cy3 cluster intensity, sum of 5 cycles each) (fold (ratio)); higher = stronger signal-on switching upon ATP binding; sequences stand for … in TCGTCGGCAGCGTCAGATGTGTATAAGAGACAGTTTTTTTTTTTTTTTTTTTTTTTTT…TC. Conditions: aptamer strand: ATP DNA aptamer (quencher-CACCTGGGGGAGTATTGCGGAGGAAGG + anchor), 100 nM annealed; ATP concentration: 500 uM; one replicate. Put shortly: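 Imaging in selection buffer was followed by imaging after 15 min with 500 uM ATP at 22 °C, for Cy3-labelled switching-strand clusters annealed to 100 nM quencher-labelled ATP aptamer on a modified Illumina MiSeq flow-cell. Five of these buffer/ATP cycles ran, separated by NaOH stripping and re-annealing. The fluorescence ratio per cluster is summed target-cycle over summed buffer-cycle Cy3 intensity, averaged per switch-domain sequence; clusters outside 100-1000 RFU were removed.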
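Further: ATP exposure 15 min at 22 °C before imaging.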

Turning to TAGATTGCGT, the switch fluorescence ratio worked out at 1.02.
As for AGTTTATGTT, the switch fluorescence ratio turned out to be 0.946.
For CAGCGTTTGG, the switch fluorescence ratio was found to be 1.
Under GAGACTGCTC stands 0.973; under TATGTGTCGG, 1.03.
For the sequence TTGACATTTG, the switch fluorescence ratio amounted to 1.04.
Under TCTTATCTTC stands 0.99; under GTATATTATA, 0.968; under GGCGGGAGC, 0.974.
Under ACACGCTAAC stands 2.19.
Regarding AAGGAAGGAC, the switch fluorescence ratio is 0.975.
Take CTTAATTGGT: the switch fluorescence ratio was found to be 1.06.
In the case of CATTCAACAC, the switch fluorescence ratio turned out to be 1.06.
As for CTACTCATAG, the switch fluorescence ratio came out at 1.11.
Under GGCTACGATC stands 1.04; under CTCTGGATAT, 1.36; under GGACTGACAC, 1.32.
Take CGACTGGGTT: the switch fluorescence ratio came out at 1.
Under GCTACGGGCG stands 1.01.
Under CTCAATGGGG stands 1.03; under TCGTCTGGGT, 1.02; under ACGGCTGGCT, 1.07.
Under CAATTTAGAG stands 0.906; under TATCAAGGGC, 0.947; under CGGTAACCGT, 0.986.
For the sequence GCCAGGGTAA, the switch fluorescence ratio was found to be 0.995.
Under TCTATCATAG stands 0.998; under AAATTAGTAT, 0.988; under TAATGGTAGG, 0.985.
For the sequence CTATTAGTAG, the switch fluorescence ratio is 1.02.
Under ATTTGGGCGG stands 0.952; under TTGCCCTAAT, 1.01; under TAGCCCCGAA, 1.07.
Take GATTCGCTTG: the switch fluorescence ratio was 1.04.
For ATGTACTCGA, the switch fluorescence ratio worked out at 1.05.
Under ACTCTGTGCG stands 0.991.
Consider CTTTCTACGT, for which the switch fluorescence ratio amounted to 1.39.
Under CAGGTCTGTT stands 0.979; under GATACTAAGT, 1.01; under GCTTCAATTG, 1.03.
Under GAATCAAAGT stands 0.987; under ACAGTTTCGC, 1.02.
For ACTCTGTCAT, the switch fluorescence ratio came out at 1.46.
Under AGAATTAGAT stands 1; under TGTAAGGTTA, 1; under ATGGACCTAG, 0.972.
GGTCGGGTGT: the switch fluorescence ratio stood at 0.991.
ATCGCAGCAC: the switch fluorescence ratio was 3.97.
Under AGAAATAGTA stands 0.984; under CGATCTGTGG, 0.981; under CAGGAAAGGG, 1.02.
For ACATGTGTGA, the switch fluorescence ratio came to 1.03.
In the case of AACCGGAACA, the switch fluorescence ratio was found to be 1.07.
For the sequence TGTTATCGT, the switch fluorescence ratio came to 1.03.
With CAGTAAAGCT, the switch fluorescence ratio stood at 1.11.
For the sequence AAGGCCAAGT, the switch fluorescence ratio came out at 1.04.
Under TATCGAGTAC stands 1.1; under CTTCGCTTA, 2.29; under AATAGCTATA, 1.
Under ATCTTGGGCG stands 0.982.
Under CATCATCATA stands 1.05; under TTGTACGGGA, 1.05; under TGCGAGTGCG, 1.15.
Consider TAGGACTAGT, for which the switch fluorescence ratio worked out at 0.997.
Under GAACGATGGG stands 1.01.
Regarding GAGGTCTTAG, the switch fluorescence ratio worked out at 0.972.
Under GGCTCCAGGA stands 1.05; under TGACAAAGGT, 0.991.
Under TGAGGTATAA stands 0.984.
Under TAGCACCGGC stands 1.07; under AGGTTAAAAA, 1.05.
Turning to CGGTAATAAG, the switch fluorescence ratio is 1.02.
With AGTTCTGGCA, the switch fluorescence ratio was found to be 0.954.
Take ACCCCCGCG: the switch fluorescence ratio turned out to be 1.18.
Under CGAGTCATGC stands 1.05; under TATGAACAGT, 0.978.
For ATTTTTCAAT, the switch fluorescence ratio worked out at 0.998.
Under CCGGCTAGAA stands 1.27; under TATTCCGTCT, 1.11.
